The text below walks through data of patent US20040265931.

The series relates to ubiquitinated Flag-p53.

Regarding Flag-HAUSP (no sequence given), the “in vitro deubiquitination of purified ubiquitinated p53” value is reported as “p53 was efficiently deubiquitinated upon incubation with purified recombinant HAUSP”.
